The list shows a part of the results.
Test system: HSkMC (human skeletal muscle cells)
Test: cytotoxicity call (relative viability < 0.9)
Conditions: 10 µM

Row | Compound | cytotoxicity call
1 | C[C@H]1CN([C@@H](C)CO)C(=O)c2cc(NC(=O)CCCCCC(=O)Nc3ccccc3N)ccc2O[C@@H]1CN(C)S(C)(=O)=O | inactive
2 | C[C@H](CO)N1C[C@H](C)[C@H](CN(C)Cc2ccc(Cl)c(Cl)c2)Oc2ccc(NC(=O)C3CCCCC3)cc2CC1=O | inactive
3 | CCS(=O)(=O)NCC[C@H]1CC[C@H](NS(=O)(=O)c2cccc(F)c2)[C@@H](CO)O1 | inactive
4 | COc1ccc(S(=O)(=O)N(C)C[C@@H]2Oc3ccc(NC(=O)Cc4ccccc4)cc3CC(=O)N([C@@H](C)CO)C[C@@H]2C)cc1 | inactive
5 | C[C@@H]1CN([C@@H](C)CO)C(=O)c2cccc(NS(=O)(=O)c3ccccc3)c2O[C@@H]1CN(C)S(=O)(=O)c1ccc(F)cc1 | inactive
6 | CCOC(=O)c1c(CN2CCN(CCOCCO)CC2)n(-c2ccccc2)c2cc(Br)c(O)cc12 | inactive
7 | Cc1noc(C)c1S(=O)(=O)Nc1ccc2c(c1)C(=O)N([C@@H](C)CO)C[C@H](C)[C@@H](CN(C)C(=O)Nc1ccc(C(F)(F)F)cc1)OCCCC[C@H](C)O2 | inactive
8 | CN1C(=O)c2cc(NS(C)(=O)=O)ccc2OC[C@@H]2O[C@H](CC(=O)N3CCOCC3)CC[C@@H]21 | inactive
9 | C[C@H](CO)N1C[C@H](C)[C@@H](CN(C)Cc2cccc3c2OCCCO3)OCc2ccccc2-c2ccccc2C1=O | inactive
10 | C[C@@H]1CN([C@H](C)CO)C(=O)c2cc(NC(=O)Nc3ccc(C(F)(F)F)cc3)ccc2O[C@@H](C)CCCCO[C@H]1CN(C)C(=O)NC1CCCCC1 | inactive
11 | C[C@H](CO)N1C[C@H](C)[C@@H](CN(C)C(=O)NC2CCCCC2)Oc2ccc(NC(=O)Cn3cnnn3)cc2CC1=O | inactive
12 | C[C@@H]1CN([C@@H](C)CO)S(=O)(=O)c2ccc(-c3cncnc3)cc2O[C@H]1CN(C)C(=O)C1CCCCC1 | inactive
13 | COc1ccc(S(=O)(=O)Nc2ccc3c(c2)C(=O)N([C@@H](C)CO)C[C@H](C)[C@@H](CN(C)CC2CCCCC2)OCCCC[C@H](C)O3)cc1 | inactive
14 | CNC[C@H]1Oc2ccc(NC(=O)CCN3CCOCC3)cc2CC(=O)N([C@H](C)CO)C[C@H]1C | inactive
15 | Cc1noc(C)c1S(=O)(=O)N(C)C[C@H]1OCCCC[C@H](C)Oc2ccc(NS(=O)(=O)c3cn(C)cn3)cc2C(=O)N([C@@H](C)CO)C[C@@H]1C | inactive
16 | Cc1nc2c(=O)n(C)c(=O)n(C)c2nc1Cl | active
17 | CO[C@H]1CN(C)C(=O)c2ccc(NC(=O)Nc3ccccc3)cc2OC[C@H](C)N(C(=O)CN(C)C)C[C@H]1C | inactive
18 | CCCN1C[C@H](C)[C@H](OC)CN(C)C(=O)c2ccc(NS(=O)(=O)c3cn(C)cn3)cc2OC[C@@H]1C | inactive
19 | COc1ccc(NC(=O)Nc2ccc3c(c2)C(=O)N([C@@H](C)CO)C[C@H](C)[C@H](CN(C)Cc2ccc(C(=O)O)cc2)OCCCC[C@@H](C)O3)cc1 | inactive
20 | O=C(C[C@H]1CC[C@H]2[C@@H](COC[C@H](O)CN2S(=O)(=O)c2cccc(Cl)c2)O1)NCc1ccncn1 | inactive

Row | Compound | cytotoxicity call
21 | C[C@@H]1CN([C@H](C)CO)C(=O)Cc2cc(NC(=O)C3CC3)ccc2O[C@H]1CN(C)C(=O)NC1CCCCC1 | inactive
22 | CC(C)NC(=O)Nc1ccc2c(c1)C(=O)N([C@@H](C)CO)C[C@@H](C)[C@@H](CN(C)C(=O)Nc1ccc(C(F)(F)F)cc1)OCCCC[C@@H](C)O2 | inactive
23 | Cc1ccc(S(=O)(=O)N(C)C[C@@H]2Oc3c(NC(=O)NC(C)C)cccc3C(=O)N([C@H](C)CO)C[C@H]2C)cc1 | inactive
24 | C[C@@H]1CCCCO[C@H](CN(C)Cc2ccccc2)[C@H](C)CN([C@H](C)CO)C(=O)c2cc(NS(=O)(=O)c3cccs3)ccc2O1 | inactive
25 | CC(C)NC(=O)N(C)C[C@H]1Oc2c(NC(=O)C3CCCCC3)cccc2C(=O)N([C@H](C)CO)C[C@H]1C | inactive
26 | COc1ccc2c3c(n(c2c1)C)[C@@H](CO)N(C[C@]13CCN(CC1)C(=O)CN(C)C)C(=O)C1CCCCC1 | inactive
27 | C[C@@H]1CCCCO[C@H](CN(C)C(=O)Nc2ccc3c(c2)OCO3)[C@@H](C)CN([C@@H](C)CO)C(=O)c2cc(NC(=O)CCC(F)(F)F)ccc2O1 | inactive
28 | CCN(CC)C(=O)c1cccc(C)c1 | inactive
29 | COCC(=O)NC1CCN(C2CCNCC2)CC1 | inactive
30 | COCCOC(=O)N1C(=O)[C@@]2(c3cc(C#CCCO)ccc31)[C@H](c1ccc(O)cc1)N1[C@H](c3ccccc3)[C@H](c3ccccc3)OC(=O)[C@H]1[C@@H]2C(=O)N1CCc2cc(OC)c(OC)cc2C1 | inactive
31 | O=C(NCCCN1CCCC1=O)c1cccnc1 | inactive
32 | COc1ccc(NC(=O)N(C)C[C@@H]2OCCCC[C@H](C)Oc3ccc(NS(=O)(=O)c4ccc(F)cc4)cc3C(=O)N([C@H](C)CO)C[C@@H]2C)cc1 | inactive
33 | COc1ccc(-c2cc(=O)c3c(OC)c(OC)c(OC)c(OC)c3o2)cc1 | inactive
34 | C[C@H](CO)N1C[C@H](C)[C@H](CN(C)Cc2ccccc2)OCCCC[C@H](C)Oc2ccc(NC(=O)Nc3ccc4c(c3)OCO4)cc2C1=O | inactive
35 | C[C@H](CO)N1C[C@H](C)[C@H](CN(C)C)Oc2ccc(NS(C)(=O)=O)cc2CC1=O | inactive
36 | C[C@H]1CCCCO[C@@H](CN(C)S(=O)(=O)c2cccs2)[C@@H](C)CN([C@@H](C)CO)C(=O)c2cc(NC(=O)Nc3ccc4c(c3)OCO4)ccc2O1 | inactive
37 | S=c1cc(-c2ccccc2)oc(-c2ccccc2)c1 | inactive
38 | COCC(=O)Nc1ccc2c(c1)C(=O)N(C)C[C@@H](OC)[C@@H](C)CN(Cc1ccccc1F)[C@H](C)CO2 | inactive
39 | O=C(C[C@H]1C[C@H]2c3cc(NC(=O)Nc4ccc(C(F)(F)F)cc4)ccc3O[C@H]2[C@H](CO)O1)NC1CCCCC1 | inactive
